From the RNAGym collection of RNA variant scans (doi:10.7554/elife.90254)
Read counts are not given, so values of variants with three or more changes are uncertain.

B1: LINE1-mini (parent)
chain: GGCAGAGCUCAACACAGCGUGGCAAAGUGGCUGUGGCUAGACUGCC

Variants of: B1
Assay: self-cleavage, relative activity (ratio to wild type); higher = more cleavage; in vitro, sequencing; the parent is a self-cleaving ribozyme
In the case of G7A A11U A16G G33C, the self-cleavage is reported as 0.04. With G2A A11U G33U U38A the self-cleavage was 0.04. Variant G2C G5C A24G C45U has a self-cleavage of 0.03. In the case of G2A A14C C18A G19U G21U C42G, the self-cleavage is reported as 0.04. C3A A11C C13A C37G gave a self-cleavage of 0.03. C23G A39C G44A gave a self-cleavage of 0.04. For A6G G7C C8U G30C C37U A39U C46A, the self-cleavage was 0.11. In the case of A26C G35U C37A, the self-cleavage is reported as 0.04. Work on A24G G27U C46U yielded a self-cleavage of 1.32. A16U C23A C42G gave a self-cleavage of 0.05. U20C G36U C45G gave a self-cleavage of 0.32. With A12C G29C C46G the self-cleavage was 0.02. Work on U20A C31G A41U C42G yielded a self-cleavage of 0.03. Variant C8A G30C U32A U38A has a self-cleavage of 0.02. Work on U9C A12U G22A A25G U43G yielded a self-cleavage of 0. In the case of C31G G33U C45A, the self-cleavage is reported as 0.07. For C3A G22C U32C, the self-cleavage was 0.16. C3U A11U U38C gave a self-cleavage of 0.17. With A4U C15A A26G the self-cleavage was 0.05. G2A C23U U34A gave a self-cleavage of 0.24. C3U G7U U43C G44A gave a self-cleavage of 0.03. In the case of A6U A16G G22U U43C, the self-cleavage is reported as 0.01. With G1U U9C C15A the self-cleavage was 0.02. For G2C G19U G40U, the self-cleavage was 0.07. C3G A4U U20A G36U G40U gave a self-cleavage of 0.03. Work on G5A G7C C37A G40U yielded a self-cleavage of 0.2. Work on C18U C23U A24C A25U G44C yielded a self-cleavage of 0.04. G7U C8A A24U G40U gave a self-cleavage of 0.18. Variant A14G U20A G22A U38C C46U has a self-cleavage of 0.04. With C31A G40U U43A the self-cleavage was 0.2. With G2A G22U A39G the self-cleavage was 0.55. With G1U U9A C15U G30U G33U the self-cleavage was 0.01. In the case of U20C G22A A24C A26U G30C G35A, the self-cleavage is reported as 0.07. With C8U G22U G30A the self-cleavage was 1.37. G22U G36U U43A C45G showed a self-cleavage of 0.05. For C8G G22A A24G C37U C42A, the self-cleavage was 0.07. C15G C18U G40U C42A gave a self-cleavage of 0.18. A11G G17C G21U U38C showed a self-cleavage of 0.01. In the case of C10U G19U G33U, the self-cleavage is reported as 0.11. Work on U9A A14G C18A U43C G44C yielded a self-cleavage of 0.02. In the case of C18G G27C U34A G36C C42G, the self-cleavage is reported as 1.01. For U9A A16G U38C, the self-cleavage was 0.02. For A4C A14U C42U C45G, the self-cleavage was 0.02. C13U G19A C45A gave a self-cleavage of 0.1. A4G C10G C18A U28G U34A gave a self-cleavage of 0.01. For A6U A16U G33C, the self-cleavage was 0.08. G2U A11C G22U G44C gave a self-cleavage of 0.02. In the case of U9A A12G A14G, the self-cleavage is reported as 0.02. Variant G29C G30A C37A has a self-cleavage of 0.08. In the case of A4C C23A A25C C31U C46A, the self-cleavage is reported as 0.03. Variant A6G A14C U32C G35A U38A has a self-cleavage of 0. With C8A G36A U43C the self-cleavage was 0.05. Variant G1U C23A C42A has a self-cleavage of 0.08. With C15A G22C A26U the self-cleavage was 0.05. Work on C18U A26C A41C yielded a self-cleavage of 0.1. Variant A6G U28G G35A C42A C45G has a self-cleavage of 0.03. Variant C8A U9G U43A has a self-cleavage of 0.09. Work on G1U C13A G27C yielded a self-cleavage of 0. G5U A25U U34G G36C gave a self-cleavage of 0.04. In the case of G17C U34C C42A, the self-cleavage is reported as 0.04. Variant C8G C15G A16U G19C has a self-cleavage of 0.01. For C8G U34C A39C C46A, the self-cleavage was 0.01. With G7U A14G G17U U32G C37G G44A the self-cleavage was 0.06. For A4G C23A G27C C45G, the self-cleavage was 0.01. Variant A14C C15U C31U G44U has a self-cleavage of 0.03. G17A U34C G36A gave a self-cleavage of 0.07. In the case of G2A C23A C42U, the self-cleavage is reported as 1.39. G1U C3U G21U showed a self-cleavage of 0.28. Work on G1A C13G C23U G30A yielded a self-cleavage of 0.09. Variant C3U A4C C15G A16G U20A G21A G36C has a self-cleavage of 0.14. With A14U U32C U38A the self-cleavage was 0.06. With G7A C10A G17U G30A U34G the self-cleavage was 0.02. Variant G40U U43C C46U has a self-cleavage of 0.1. C10G A25U U43C G44U C45A showed a self-cleavage of 0.01. With G1C C13U A16U C31A the self-cleavage was 0.02. C15A C23U C31A showed a self-cleavage of 0.02. G2U U20C U38A gave a self-cleavage of 0.02. G1A A6U A14G C42A gave a self-cleavage of 0.1. For C15A G17U G27A G30U C45U C46G, the self-cleavage was 0.03. With A25C G29U G40A the self-cleavage was 0.04. Work on G2A G27C C45A yielded a self-cleavage of 0.38. With G2A C8A G17A the self-cleavage was 0.16. Work on A4U U9A A12G U38A yielded a self-cleavage of 0.03. Variant G1U C3G A16U C23A C37U C42U has a self-cleavage of 0.07. G1A G35C G36C U38A G40U showed a self-cleavage of 0.08. In the case of G7C U20A A24C G27U A41U, the self-cleavage is reported as 0.14. U28A G29U C31G G36A A39C C45G showed a self-cleavage of 0.12. With G7U A14C G17U C18A G30U G44C the self-cleavage was 0.08. In the case of A24C G29A G30U, the self-cleavage is reported as 0.39. With C13A A26C U34A G40U C45G the self-cleavage was 0.01. For A4U A16U U34C G36U C37A, the self-cleavage was 0. A4C A16U G22U G29A showed a self-cleavage of 0.04. With G2C G5U A14U G33C the self-cleavage was 0.01. C13A G17A U32C U43A gave a self-cleavage of 0.08. G1A G5A A6U G21U showed a self-cleavage of 0.1. With G1U A12C A14C A16U the self-cleavage was 0.01. Work on C15A C23G U32C yielded a self-cleavage of 0.07. A11C A12U C23A C42U showed a self-cleavage of 0.02. G2A C3A A25C G30C showed a self-cleavage of 0.92. Variant U9A A14G A39U has a self-cleavage of 0.09. With A14G C18U C37U G44U C45G the self-cleavage was 0.15. With A16C C42A C46A the self-cleavage was 0.13. For A12U C13U U32A G36U G44U, the self-cleavage was 0.03. G1U A4C C15A G19U C42U showed a self-cleavage of 0.01. G2A G36A C42A gave a self-cleavage of 0.41. With A11G U20C G22A U28A the self-cleavage was 0. In the case of G2C G5C A39G A41G, the self-cleavage is reported as 0.02. Variant C10A U20C G35U G36C has a self-cleavage of 0.15. A6C G7A A12C showed a self-cleavage of 0.02. Variant G2C G5U C15A G29C C31U A41C has a self-cleavage of 0.02. For A6U C8A A24G A26C, the self-cleavage was 0.29. In the case of A4G G5C C42A, the self-cleavage is reported as 0.04. With G17C C18A U32G the self-cleavage was 0.03. Work on A16G G22C A39C yielded a self-cleavage of 0.01. C3G G7A A26C showed a self-cleavage of 0.52. In the case of C3G G19U U20C C31A, the self-cleavage is reported as 0.12. For G7U C23U A25G, the self-cleavage was 0.04. C13U A14U G27C G35C showed a self-cleavage of 0.04. For A6G C13U C45U, the self-cleavage was 0.03. With G1A A12C C37A the self-cleavage was 0.01. Work on G1A G17C A24C U32A A39G yielded a self-cleavage of 0. C15A A26U C46G showed a self-cleavage of 0.07. Variant G1C A12C G33A G36U has a self-cleavage of 0.01. G17A A25U U43C showed a self-cleavage of 0.01. Variant U32C G40C G44U has a self-cleavage of 0.06. Work on A26U U34G A39C yielded a self-cleavage of 0. G21U A26C U43A gave a self-cleavage of 0.06. For G5U A39C C46A, the self-cleavage was 0. For G7A C18U G36C, the self-cleavage was 0.12. With A4G A24U U34C C37G the self-cleavage was 0.01. With A4G U32G C42A the self-cleavage was 0.13. G27A G29A G33A showed a self-cleavage of 0.05. Work on G5C G7A A24C C45U yielded a self-cleavage of 0.07. Variant G5U A24U C37U U38C has a self-cleavage of 0.01. Work on G2A G7C C23U yielded a self-cleavage of 0.38. For G2U A16C C23U, the self-cleavage was 0.03. With G1U G19A U28G the self-cleavage was 0.02. Variant C8U C13U G27C G36U has a self-cleavage of 0.81. Variant G17U G27A G29A has a self-cleavage of 0.12. In the case of C3U A12C A16C G19A, the self-cleavage is reported as 0.02. With G2A A4G C15U G22A G36C C37G the self-cleavage was 0.04. Variant G5U A11C A12U U20C has a self-cleavage of 0.02. For A6G G33U G35A G40A, the self-cleavage was 0.07. A6G G17C G22U C46U gave a self-cleavage of 0.11. A6C U28G U34C showed a self-cleavage of 0.02. C8G A12C A14C showed a self-cleavage of 0.03. In the case of C10G C13U C31U, the self-cleavage is reported as 0.03. With C8U A25C G29C the self-cleavage was 0.09. With A11C U32G U43C the self-cleavage was 0. C10A C18G U20C A26C gave a self-cleavage of 0.08. In the case of C3A G19C A25U U32A, the self-cleavage is reported as 0.25. Variant A25C A26U C37A has a self-cleavage of 0.07. C3A A11G A16C C37U showed a self-cleavage of 0.01. For A4U G22A G27C G36C, the self-cleavage was 0.1. Variant G22C A25U A26U has a self-cleavage of 0.73. Work on A11G A16G U20G G44A yielded a self-cleavage of 0.01. With A6U G21A G30U G35U A39C G40U A41U the self-cleavage was 0.24. For C18A U28G C37U, the self-cleavage was 0.04. In the case of C15U U32G G40C, the self-cleavage is reported as 0.08. In the case of C13G C18A C23G G30A, the self-cleavage is reported as 0.06. With C3U C10A A14C A16U A24C the self-cleavage was 0.02. Work on G2C A12U C45A yielded a self-cleavage of 0.06. With C15G A16G G36U G40U the self-cleavage was 0.04. C10G A11U G17U G21U G35U G36A gave a self-cleavage of 0.02. G2A C8G A14C gave a self-cleavage of 0.08. In the case of C3U G33U G44A, the self-cleavage is reported as 0.09. Variant G7C C13A A26U U38C has a self-cleavage of 0.03.
